Screen size: about 310,000 compounds; about 18,000 (5.8%) were called active. This list was built around the results that the source calls inconclusive (neither active nor inactive); the mix of calls is not that of the screen. Calls follow the shape of the dose curve; as a rule, active = well fitted inhibition curve with a large enough effect; inconclusive = small, poorly fitted or top-dose-only effect, or another doubt; inactive = no such curve, though single readings can be large or run the other way. Potencies of inconclusive entries are left out as doubtful fits.
Experiment: Primary qHTS for delayed death inhibitors of the malarial parasite plastid, 48 hour incubation
Conditions: P. falciparum luciferase growth in erythrocytes; series mostly up to 28.7 µM
How it was run: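 Firefly luciferase activity from engineered P. falciparum reports growth; inhibitors lower the luminescent signal. Cultures contained 2% hematocrit erythrocytes at 0.1% final parasitemia.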
With `Cc1ccc(-c2cc(C(=O)Nc3cc(C)ccc3C)[nH]n2)c(O)c1` the Potency was inconclusive [inhibitor, partial curve, poor fit].
In the case of `O=C(CC1CC2CCC1C2)N1CCN(S(=O)(=O)c2ccccc2[N+](=O)[O-])CC1` (stereo not given), the Potency is reported as inconclusive [inhibitor, single point].
In the case of `CC(C)(C)OC(=O)N[C@H](Cc1ccccc1)C(=O)N1CCC[C@@H]1C(=O)O`, the Potency is reported as “inactive”.
For `NC1=NC2CS(=O)(=O)CC2S1` (stereo not given), the Potency was “inactive”.
In the case of `CCC(C)NC(=O)c1ccc(N2CC3CC(C2)c2cccc(=O)n2C3)c(NC(=O)c2ccc(Br)o2)c1` (stereo not given), the Potency is reported as inconclusive [inhibitor, partial curve, poor fit].
In the case of `CCOc1ccccc1Nc1nc(-c2sc(NC(=O)c3ccccc3)nc2C)cs1`, the Potency is reported as active: 7.38 µM.
In the case of `O=C(Cc1cccs1)NCc1cccc(Cl)c1`, the Potency is reported as “inactive”.
With `CCC(CC)C(=O)c1c[nH]c(C(=O)N2CCN(c3ccccc3F)CC2)c1` the Potency was inconclusive [inhibitor, partial curve].
For `Cc1cc(C)cc(OCC(=O)N(C)CC(=O)Nc2ccc(Cl)c(C(F)(F)F)c2)c1`, the Potency was inconclusive [inhibitor, single point].
In the case of `Nc1c(C(=O)N2CCOCC2)sc2nc3c(cc12)CCCC3`, the Potency is reported as “inactive”.
With `CC(Oc1ccc(Br)cc1)C(=O)Nc1ccc(N2CCOCC2)cc1N1CCOCC1` (stereo not given) the Potency was active: 11.7 µM.
In the case of `COc1ccccc1Cn1nnc2c(=O)[nH]c(C3CCN(C(=O)c4ccc(C)cc4)CC3)nc21`, the Potency is reported as inconclusive [inhibitor, partial curve, poor fit].
In the case of `CCCN1CCN(CCCNC(=O)c2cc3c(=O)[nH]c4ccccc4c3s2)CC1`, the Potency is reported as inconclusive [inhibitor, partial curve, poor fit].
In the case of `CC(C)c1ccc(NC2CCCN(C(=O)c3n[nH]c4c3CCC4)C2)cc1` (stereo not given), the Potency is reported as “inactive”.
In the case of `O=C1OC(CN2CCOCC2)CN1N=Cc1ccc([N+](=O)[O-])o1` (stereo not given), the Potency is reported as active: 13.1 µM.
For `CCCCCOc1ccc(C(=O)CCN2CCOCC2)cc1`, the Potency was inconclusive [inhibitor, single point].
In the case of `COc1ccc(C(=O)Nc2ccccc2)cc1NC(=O)c1ccc([N+](=O)[O-])cc1`, the Potency is reported as “inactive”.
In the case of `O=C(Cn1cccc1C(=O)c1ccccc1)NCc1ccc(Cl)cc1`, the Potency is reported as “inactive”.
In the case of `CCc1sc(C(=O)Nc2cccc(-n3cnnn3)c2)cc1C`, the Potency is reported as inconclusive [inhibitor, single point].
For `N#CC(C#N)=C1C=CC=CN1/C(=C\c1ccco1)C(=O)c1ccc(Cl)cc1`, the Potency was inconclusive [inhibitor, single point].
In the case of `CCOc1ccc(C2C=C(c3ccc(F)cc3)Nc3ncnn32)cc1` (stereo not given), the Potency is reported as active: 11.7 µM.
With `CCOc1ccc(CCNC(=O)COC(=O)Cc2ccc(OC)c(OC)c2)cc1OCC` the Potency was inconclusive [inhibitor, single point].
For `CC(C)(C)CC(=O)Nc1ccccc1N1CCN(c2ccccc2)CC1`, the Potency was inconclusive [inhibitor, single point].
In the case of `CN(C)S(=O)(=O)c1cc(NC(=O)CN2CCN(c3ccccc3O)CC2)ccc1Cl`, the Potency is reported as inconclusive [inhibitor, partial curve, poor fit].
With `CCOc1ccc(-n2c(Cc3cc(=O)[nH]c(=O)[nH]3)nnc2SCC(=O)Nc2nnc(C)s2)cc1` the Potency was “inactive”.
In the case of `CC(CCc1ccccc1)NC(=O)COC(=O)c1cccn1C` (stereo not given), the Potency is reported as inconclusive [inhibitor, partial curve, poor fit].
For `CCC(=O)c1cn(CC(=O)Nc2ccc(C)cc2C)c2ccccc12`, the Potency was “inactive”.
With `Cc1ccc(N2CC(C(=O)NCCS(=O)(=O)N3CCN(c4ccc(F)cc4)CC3)CC2=O)cc1` (stereo not given) the Potency was “inactive”.
With `COC(=O)C1=C(C)N=C2SC(C#N)=C(N)N2C1c1cc(OC)c(OC)c(OC)c1` (stereo not given) the Potency was inconclusive [inhibitor, single point].
For `C=CCOCCn1[nH]c2ccccc2c1=O`, the Potency was inconclusive [inhibitor, single point].
With `C/C(Cc1ccccc1)=N\NC(=O)CNC(=O)c1ccc(Cl)cc1Cl` the Potency was “inactive”.
With `CN(Cc1ccccc1)S(=O)(=O)c1ccc2[nH]cc(C(=O)NCC3CCCO3)c(=O)c2c1` (stereo not given) the Potency was “inactive”.
For `CCN(CC)CCNC(=O)CS(=O)Cc1nc(-c2ccc(C)cc2)oc1C` (stereo not given), the Potency was inconclusive [inhibitor, full curve, poor fit].
With `CCCN1C(=O)c2cc(C(=O)Nc3ccc(OC)c(OC)c3)ccc2C1Nc1ccc(OC)c(OC)c1` (stereo not given) the Potency was inconclusive [inhibitor, partial curve, poor fit].
With `O=C(CSc1nnc(CNC(=O)c2cccc(C(F)(F)F)c2)o1)NC1CCCCC1` the Potency was “inactive”.
With `Cc1ccc(C)c(OCCCC(=O)N2CCOCC2)c1` the Potency was “inactive”.
For `CCOc1ccc(-c2cc(C(=O)NCCCn3ccnc3)c3ccccc3n2)cc1`, the Potency was inconclusive [inhibitor, single point].
For `COc1ccc(C)c2sc(N(CCCN(C)C)C(=O)CS(=O)(=O)c3ccc(F)cc3)nc12`, the Potency was inconclusive [inhibitor, single point].
In the case of `O=[N+]([O-])c1ncccc1Oc1nc(-c2cccnc2)nc2ccccc12`, the Potency is reported as inconclusive [inhibitor, single point].
For `Cc1ccc(S(=O)(=O)N2CCC(C(=O)OCC(=O)N3CC(=O)Nc4ccccc43)CC2)cc1`, the Potency was inconclusive [inhibitor, partial curve].
For `O=S(=O)(NC1CCCC1)c1cccc(S(=O)(=O)N2CCC(n3nnc4ccccc43)CC2)c1`, the Potency was active: 10.4 µM.
For `S=c1[nH]nc(COc2ccc(Cl)cc2)n1Cc1ccco1`, the Potency was “inactive”.
With `Cc1ccccc1-c1nc(CS(=O)(=O)CC(=O)NCc2ccco2)c(C)o1` the Potency was “inactive”.
For `Cc1ccc(S(=O)(=O)N2CCN(C(=O)COc3ccc(-c4nnco4)cc3)CC2)cc1`, the Potency was inconclusive [inhibitor, partial curve, poor fit].
In the case of `Cc1cc(C)nc(Sc2ccc([N+](=O)[O-])cc2[N+](=O)[O-])n1`, the Potency is reported as active: 5.86 µM.
Potency is read from the fitted curve at half-maximal effect; tags tell the direction and shape of the fitted curve.
